Reference: PubChem BioAssay AID1030 (National Center for Advancing Translational Sciences (NCATS), 2008)
About 16,000 (7.3%) of roughly 220,000 compounds were called active. This list was built around the results that the source calls inconclusive (neither active nor inactive); the mix of calls is not that of the screen. Calls come from the whole dose curve; as a rule, active = well fitted inhibition curve with a large enough effect (not every such curve was filed as active); inconclusive = small, poorly fitted or top-dose-only effect, or another doubt; inactive = no such curve, though single readings can be large or run the other way. Potencies of inconclusive entries are left out as doubtful fits.

Target: Aldehyde dehydrogenase 1A1 (Homo sapiens) (UniProt P00352)
Sequence of UniProt P00352 (P00352 whole entry, looked up): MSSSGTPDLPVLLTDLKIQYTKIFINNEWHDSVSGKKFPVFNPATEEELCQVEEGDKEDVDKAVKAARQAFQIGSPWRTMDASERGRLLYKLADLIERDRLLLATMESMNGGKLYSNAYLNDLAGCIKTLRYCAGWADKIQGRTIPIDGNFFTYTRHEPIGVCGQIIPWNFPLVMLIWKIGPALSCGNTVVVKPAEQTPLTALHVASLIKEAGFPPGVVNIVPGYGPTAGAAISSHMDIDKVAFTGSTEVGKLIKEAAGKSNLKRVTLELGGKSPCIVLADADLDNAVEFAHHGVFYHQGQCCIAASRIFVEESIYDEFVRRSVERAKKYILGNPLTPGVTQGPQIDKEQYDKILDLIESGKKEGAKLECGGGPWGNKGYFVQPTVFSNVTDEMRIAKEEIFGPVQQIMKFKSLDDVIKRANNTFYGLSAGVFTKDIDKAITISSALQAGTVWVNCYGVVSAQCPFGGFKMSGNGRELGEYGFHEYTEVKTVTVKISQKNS
Assay: qHTS Assay for Inhibitors of Aldehyde Dehydrogenase 1 (ALDH1A1)
Details: Purified ALDH1A1, NADH fluorescence, propionaldehyde substrate; series mostly up to 75.3 µM
Potency is the fitted concentration of half-maximal effect; tags give direction and shape of the fitted curve.

Compound	Potency
O=C(CSc1nnnn1C1CCCCC1)NCc1ccco1	inconclusive [inhibitor, single point]
O=C(c1csnn1)N1CCC2(CCCN(c3ncccn3)C2)CC1	inconclusive [inhibitor, single point]
O=C(C1=C[C@H](c2csc3ccccc23)C[C@H](OCc2ccc(CO)cc2)O1)N1CCN(Cc2ccc3c(c2)OCO3)CC1	inactive
CSc1sc(C(=O)NCC2CC2)c(-c2cccs2)c1C#N	active: 8.91 µM
Cc1ccc2c3c1C(=O)C(=O)N3C(C)(C)CC2C (stereo not given)	inactive
C/C(=N\Nc1cccc(C(F)(F)F)c1)c1ccc(O)cc1	active: 20 µM
Cc1ccc(S(=O)(=O)N2CCN(C(=O)c3c(C)nn(-c4ccccc4)c3Cl)CC2)cc1	inactive
c1ccc(CNc2nc(-c3ccc4c(c3)OCO4)nc3ccccc23)cc1	inconclusive [inhibitor, single point]
CCOC(=O)CC(NC(=O)Cn1nnc(-c2ccccc2F)n1)c1ccc(OC)cc1 (stereo not given)	inconclusive [inhibitor, single point]
CCOC(=O)N1CCN(C(=O)CSc2nc3ccccc3c(=O)n2-c2ccccc2)CC1	inconclusive [inhibitor, single point]
Cc1ccc(OCCCCN2CCC(C)CC2)c(Br)c1	inconclusive [inhibitor, single point]
COc1ccc(NC(=O)CCSc2ccc3ccccc3n2)cc1	inconclusive [inhibitor, single point]
O=[N+]([O-])/C=C/c1cn(Cc2ccc(F)cc2)c2ccccc12	inconclusive [inhibitor, single point]
O=C(NCc1ccc(Cl)s1)c1cc(COc2c(F)cccc2F)on1	inactive
COc1ccc2c(CC(=O)OCC(=O)NC(N)=O)coc2c1	inactive
O=C(c1cnc2c(c1)COc1ccc(Cl)cc1-2)c1ccccc1O	inactive
CC(C)CCNC(=O)Cc1c(C(=O)O)[nH]c2ccc(Cl)cc12	inconclusive [inhibitor, single point]
Cc1ccc(NC(=O)c2cccc3c2C(=O)N(C2CCCCC2)C3)cc1	inconclusive [inhibitor, single point]
O=C(NCCc1c[nH]c2ccccc12)/C(=C\c1cccs1)NC(=O)c1ccccc1	inactive
CCOC(=O)c1c(-c2ccccc2)csc1NC(=O)c1cc(S(=O)(=O)N2CCOCC2)ccc1C	inconclusive [inhibitor, partial curve]
